Measurements reported in US10329243B2, “Biphenyl derivative and uses thereof” (XI'AN LIBANG PHARMACEUTICAL CO., LTD, priority 2015, dated 2019).

Experiments:
[1] = test system: rats with cerebral ischemic reperfusion injury; assay: Neurological impairment score (Longa 5-grade), cerebral ischemic reperfusion MCAO model; format: in vivo, SD rats; conditions: ischemic reperfusion rat model; edaravone 3 mg/kg
Description: 336 healthy male SD rats weighing 250-300 g, provided by the Experimental Animal Center of the Fourth Military Medical University, were randomly divided into 14 groups: the sham operation group, the ischemic reperfusion group, and Examples 1-12 groups (i.e., the Example groups).
Rats were intraperitoneally injected with 10% chloral hydrate 350 mg/kg after anesthesia and opened up at the center of the neck in accordance with the Zea Longa modified method. The right common carotid artery was separated, and the right external carotid artery branches was ligated. A small opening was made at the distal end of the external carotid artery, and a previously prepared thread was inserted through the common carotid artery and the external carotid artery bifurcation into the internal carotid artery, till the anterior end of the middle cerebral artery, with an immersed depth of 18 to 19 mm. The thread was then secured, and the wound was sutured layer by layer. After the operation, the rats were placed in a clean incubator to wake up. […] The sham operation group, the ischemic reperfusion group, and the Example groups were prepared strictly according to the requirements of the cerebral ischemic reperfusion model, while in the sham operation group the thread was put only into the external carotid artery. […]
The neurological impairment was scored in each group 24 h after reperfusion. […]

[2] = test system: rats with permanent cerebral ischemia injury; assay: Neurological impairment score (Longa 5-grade), permanent cerebral ischemia model; format: in vivo, SD rats; conditions: edaravone 3 mg/kg
Description: 336 healthy male SD rats weighing 250-300 g, provided by the Experimental Animal Center of the Fourth Military Medical University, were randomly divided into […]: the sham operation group, the permanent cerebral ischemia model group, and Examples 1-12 groups. The biphenyl derivatives used in each of the Examples 1-12 groups were the same as those in Example 13.
Rats were intraperitoneally injected with 10% chloral hydrate 350 mg/kg after anesthesia and opened up at the center of the neck in accordance with the Zea Longa modified method. The right common carotid artery was separated, and the right external carotid artery branches was ligated. A small opening was made at the distal end of the external carotid artery, and a previously prepared thread was inserted through the common carotid artery and the external carotid artery bifurcation into the internal carotid artery, till the anterior end of the middle cerebral artery, with an immersed depth of 18 to 19 mm. The thread was then secured, and the wound was sutured layer by layer. After the operation, the rats were placed in a clean incubator to wake up. […]
The neurological impairment was scored in each group 24 h after the embolism. […]

CC1=NN(c2ccccc2)C(=O)C1 [Edaravone injection, edaravone, reference compound]
Neurological impairment score [1]: 2.6
Neurological impairment score [2]: 2.8
